Reference: US8022180B2, “Method for preventing and treating Alzheimer's disease” (Affiris Forschungs-und Entwicklungs GmbH, priority 2004, dated 2011)
Some of these results come from one statement about several compounds together.

The compounds below were run against monoclonal antibody specific for the natural N-terminal Aβ42 sequence DAEFRH (assay: Inhibition assay: mimotope peptides compete with plate-bound DAEFRH-BSA for recognition by the biotinylated monoclonal antibody (ELISA)). Settings: competition ELISA, peptides 20 min at 37° C.
Format: binding, mice
Description: 1.: Generation of Monoclonal Antibodies (mAb) to Detect Aβ42-Derived Peptide Species with Free N-Terminus (Free Aspartic Acid at the N-Terminus)
Mice are vaccinated with the 6mer peptide DAEFRH (SEQ ID NO: 26) (natural N-terminal Aβ42 sequence) linked to the protein bovine serum albumin BSA (to make use of the hapten-carrier-effect), emulsified in CFA (first injection) and IFA (booster injections). DAEFRH (SEQ ID NO: 26)-peptide-specific, antibody-producing hybridomas are detected by ELISA (DAEFRH (SEQ ID NO: 26)-peptide-coated ELISA plates).
(§1) FIGS. 2 and 3 describe the results of inhibition assays performed with mimotope peptides included in and obtained from the 5 libraries (as described). The mimotope peptides compete with the original epitope for recognition by the monoclonal antibody. Original epitope and mimotope peptides contain an additional C at the C-terminus for coupling to a protein carrier (if desired).
(§2) After blocking with PBS/BSA 1% (200 μl/well, 12 h, 4° C.), the plates are washed 3× times with PBS/Tween. Then, biotinylated monoclonal antibody (1:2000, 50 μl/well) and peptides (50 μl/well) at 50, 5, 0.5, 0.05, 0.005, and 0.0005 μg/ml are added for 20 min. at 37° C. The plates are washed 3× times with PBS/Tween and are incubated with horseradish peroxidase (HRP)-labeled streptavidin (100 μl/well, 30 min, RT). The plates are washed 5× times with PBS/Tween and are incubated with ABTS+H2O2 (0.1% w/v, 10 to 45 min) and the reaction is stopped with citric acid followed by photometric evaluation (wavelength 405 nm).
as §1, with “4” for “2”, “5” for “3”, “C-terminus (position 7)” for “C-terminus”
as §2, with “different concentrations” for “50, 5, 0.5, 0.05, 0.005, and 0.0005 μg/ml”
as §1, with “6 to 8” for “2 and 3”, “2” for “5”, “described above).” for “described).”, “C-terminus (position 7 or position 8, respectively)” for “C-terminus”

SMILES | IC50 (inhibition of monoclonal antibody binding to the original epitope)
N=C(N)NCCC[C@H](NC(=O)[C@H](Cc1ccccc1)NC(=O)[C@H](CCC(=O)O)NC(=O)[C@H](Cc1ccccc1)NC(=O)[C@@H](N)CO)C(=O)NCC(=O)N[C@@H](CS)C(=O)O [Peptide 3009, SFEFRG] | less than 5 μg/ml
CC[C@H](C)[C@H](NC(=O)[C@H](CCCNC(=N)N)NC(=O)[C@H](CC(C)C)NC(=O)[C@H](CCC(=O)O)NC(=O)[C@H](CCCNC(=N)N)NC(=O)[C@@H](N)CC(=O)O)C(=O)N[C@@H](CS)C(=O)O [Peptide 1235, DRELRI] | less than 0.5 μg/ml
CC[C@H](C)[C@H](NC(=O)[C@H](CCCCN)NC(=O)[C@H](CC(C)C)NC(=O)[C@H](CCC(=O)O)NC(=O)[C@H](CCCCN)NC(=O)[C@@H](N)CC(=O)O)C(=O)N[C@@H](CS)C(=O)O [Peptide 1236, DKELKI] | more than 5 μg/ml
CC[C@H](C)[C@H](NC(=O)[C@H](CCCCN)NC(=O)[C@H](CC(C)C)NC(=O)[C@H](CCC(=O)O)NC(=O)[C@H](CCCNC(=N)N)NC(=O)[C@@H](N)CC(=O)O)C(=O)N[C@@H](CS)C(=O)O [Peptide 1237, DRELKI] | more than 5 μg/ml
N=C(N)NCCC[C@H](NC(=O)[C@H](Cc1ccccc1)NC(=O)[C@H](CCC(=O)O)NC(=O)[C@H](Cc1ccc(O)cc1)NC(=O)[C@@H](N)CC(=O)O)C(=O)NCC(=O)N[C@@H](CS)C(=O)O [Peptide 3007, DYEFRG] | less than 0.5 μg/ml
CC[C@H](C)[C@H](NC(=O)[C@H](CCCNC(=N)N)NC(=O)[C@H](CC(C)C)NC(=O)[C@H](CCC(=O)O)NC(=O)[C@H](CCCCN)NC(=O)[C@@H](N)CC(=O)O)C(=O)N[C@@H](CS)C(=O)O [Peptide 3001, DKELRI] | less than 0.5 μg/ml
CC(C)C[C@H](NC(=O)[C@@H](N)CCC(=O)O)C(=O)N[C@@H](CCC(=O)O)C(=O)N[C@@H](Cc1ccccc1)C(=O)N[C@@H](CCCNC(=N)N)C(=O)NCC(=O)N[C@@H](CS)C(=O)O [Peptide 3008, ELEFRG] | less than 5 μg/ml
C[C@H](NC(=O)[C@H](CC(=O)O)NC(=O)[C@H](CCCNC(=N)N)NC(=O)[C@H](Cc1ccccc1)NC(=O)[C@H](CCC(=O)O)NC(=O)[C@H](Cc1c[nH]c2ccccc12)NC(=O)[C@@H](N)CC(=O)O)C(=O)N[C@@H](CS)C(=O)O [Peptide 1241, DWEFRDA] | less than 0.5 μg/ml
CC[C@H](C)[C@H](NC(=O)[C@H](CCCNC(=N)N)NC(=O)[C@H](CC(C)C)NC(=O)[C@H](CCC(=O)O)NC(=O)[C@H](Cc1c[nH]c2ccccc12)NC(=O)[C@@H](N)CC(=O)O)C(=O)N[C@@H](CS)C(=O)O [Peptide 3002, DWELRI] | more than 0.5 μg/ml
C[C@H](NC(=O)[C@@H](N)CCC(=O)O)C(=O)N[C@@H](CCC(=O)O)C(=O)N[C@@H](Cc1ccccc1)C(=O)N[C@@H](CCCNC(=N)N)C(=O)NCC(=O)N[C@@H](CS)C(=O)O [Peptide 3006, EAEFRG] | less than 0.5 μg/ml
C[C@H](NC(=O)[C@@H](N)Cc1ccc(O)cc1)C(=O)N[C@@H](CCC(=O)O)C(=O)N[C@@H](Cc1ccccc1)C(=O)N[C@@H](CCCNC(=N)N)C(=O)NCC(=O)N[C@@H](CS)C(=O)O [Peptide 3005, YAEFRG] | more than 0.5 μg/ml
